{
  "source": "PubChem BioAssay AID624296",
  "about": "(National Center for Advancing Translational Sciences (NCATS), 2012)",
  "note": "The campaign covered roughly 350,000 compounds. About 9,900 (2.8%) were called active. Inconclusive means that the source gave no clear call. Such entries were picked first, then a sample of the others. Calls come from the whole dose curve; as a rule, active = well fitted activation curve with a large enough effect; inconclusive = small, poorly fitted or top-dose-only effect; inactive = no such curve, though single readings can be large or run the other way. No potency is given beside an inconclusive call; the fits are too rough. Potency is the fitted concentration of half-maximal effect; tags give direction and shape of the fitted curve.",
  "data": [
    {"experiment": "A quantitative high throughput screen for small molecules that induce DNA re-replication in MCF 10a normal breast cells; note: nearly all actives have a fitted effect of over 50% in size.", "settings": "MCF 10A DNA re-replication, Hoechst nuclear intensity, 48 h; series mostly up to 46.1 µM", "values": [
      {"smiles": "O=C(Nc1ccncc1)C1CCN(S(=O)(=O)c2ccc(Cl)cc2)CC1", "Potency": "inconclusive [activator, single point]"},
      {"smiles": "Cc1cc(SCC(=O)NCC(c2cccs2)N2CCOCC2)c(C)cc1Br", "note": "(stereo not given)", "Potency": "inconclusive [activator, partial curve, poor fit]"},
      {"smiles": "CC(=O)OCCN(CCOC(C)=O)c1c(C)[nH]c(=O)[nH]c1=O", "Potency": "inactive"},
      {"smiles": "O=C(Nc1cccc(C(F)(F)F)c1)C1CC(=O)N(CCc2ccccc2)C1", "note": "(stereo not given)", "Potency": "inactive"},
      {"smiles": "CCOC(=O)/C=C/C(=O)Nc1cccc([N+](=O)[O-])c1", "Potency": "active: 3.66 µM"},
      {"smiles": "CC(=O)c1sc(NC(=O)CCS(=O)(=O)c2ccc(C)cc2)nc1C", "Potency": "inconclusive [activator, single point]"},
      {"smiles": "CC(C)(C)SCCNC(=O)CN(c1ccc(F)c(Cl)c1)S(C)(=O)=O", "Potency": "inactive"},
      {"smiles": "COc1ccc([C@H]2CC(=O)C=C(c3ccc(C)cc3)C2)cc1OC", "Potency": "inactive"},
      {"smiles": "Nc1ccc(O)c(-c2nc3ccccc3s2)c1", "Potency": "inconclusive [activator, single point]"},
      {"smiles": "CC1=CC(=Nc2c(C)n(C)n(-c3ccccc3)c2=O)C=C(C)C1=O", "Potency": "inconclusive [activator, single point]"},
      {"smiles": "COc1ccccc1C1CC(=O)Oc2cc(C)c(Br)c(C)c21", "note": "(stereo not given)", "Potency": "inconclusive [activator, partial curve, poor fit]"},
      {"smiles": "CCc1noc(C)c1C(=O)N(C)CC(=O)Nc1ccccc1C(F)(F)F", "Potency": "inactive"},
      {"smiles": "CC(=O)OC[C@H]1O[C@@](COC(C)=O)(O[C@H]2O[C@H](COC(C)=O)[C@@H](OC(C)=O)[C@H](OC(C)=O)[C@H]2OC(C)=O)[C@@H](OC(C)=O)[C@@H]1OC(C)=O", "Potency": "inactive"},
      {"smiles": "CCN(CC)c1ccc(S(=O)(=O)N2CCOCC2)cc1NC(=O)CN1C(=O)NC2(CCCC2)C1=O", "Potency": "inactive"},
      {"smiles": "O=C(COC(=O)Cc1c(F)cccc1Cl)NC1CCS(=O)(=O)C1", "note": "(stereo not given)", "Potency": "inactive"},
      {"smiles": "O=C(Nc1cccnc1Cl)c1cc2c(s1)-c1ccccc1OC2", "Potency": "active: 18.4 µM"},
      {"smiles": "S=C1Cc2ccccc2N1", "Potency": "inconclusive [activator, full curve, poor fit]"},
      {"smiles": "CCOc1c2ccccc2nn1CCO", "Potency": "inconclusive [activator, full curve, poor fit]"},
      {"smiles": "Cc1ccc(NCc2nc3ccccc3n2C)c(C)c1", "Potency": "inconclusive [activator, single point]"},
      {"smiles": "Cn1cnnc1SCC(=O)Nc1ccc2nc(SCc3ccccc3)sc2c1", "Potency": "inconclusive [activator, single point]"},
      {"smiles": "CCOC(=O)C1CCCN(C(=O)c2cc3cc(Br)ccc3oc2=O)C1", "note": "(stereo not given)", "Potency": "inactive"},
      {"smiles": "O=C(Nc1nnc(-c2ccc(Cl)cc2)o1)c1ccccc1Br", "Potency": "inconclusive [activator, partial curve, poor fit]"},
      {"smiles": "CC(=O)Nc1ccc(NC(=O)Nc2cc(C)cc(C)c2)cc1", "Potency": "inconclusive [activator, partial curve, poor fit]"},
      {"smiles": "Cc1cccc(C(=O)NCCNC(=O)c2cnccn2)c1", "Potency": "inactive"},
      {"smiles": "COC(=O)C1=C(C(=O)OC)[C@@H]2N(Cc3ccccc3)c3ccccc3[C@@]23C[C@@H](C(=O)OC)N(C(=O)c2cccs2)C3=N1", "Potency": "inconclusive [activator, partial curve, poor fit]"},
      {"smiles": "c1ccc2c(Nc3nnc(-c4ccncc4)s3)cccc2c1", "Potency": "inactive"},
      {"smiles": "CCN(CC)CCNc1ccc(CO)c2sc3ccccc3c(=O)c12", "Potency": "inconclusive [activator, single point]"},
      {"smiles": "CCc1cc2c(C)ccc(C)c2nc1SCC(=O)Nc1c[nH]c(=O)[nH]c1=O", "Potency": "inconclusive [activator, single point]"},
      {"smiles": "CCOc1ccccc1NC(C)C(=O)Nc1cc(C(F)(F)F)ccc1N1CCOCC1", "note": "(stereo not given)", "Potency": "inactive"},
      {"smiles": "Cc1c(C(=O)N2CCN(Cc3ccc4c(c3)OCO4)CC2)sc2ncnc(N3CCN(c4ccccc4)CC3)c12", "Potency": "inactive"},
      {"smiles": "Cn1c(-c2ccccc2)c(/C=N/NC(=O)c2cccnc2)c2ccccc21", "Potency": "inconclusive [activator, single point]"},
      {"smiles": "CCC(C)Sc1cc(-c2nc3ccccn3c2NC2CCCCC2)ccc1OC", "note": "(stereo not given)", "Potency": "active: 20.6 µM"},
      {"smiles": "NNC(=S)Nc1ccc(Cl)cc1", "Potency": "inconclusive [activator, partial curve, poor fit]"},
      {"smiles": "COc1ccc(NC(=O)CN(c2cc(C)cc(C)c2)S(=O)(=O)c2c(C)n[nH]c2C)cc1", "Potency": "inconclusive [activator, full curve, poor fit]"},
      {"smiles": "Cc1ccc(CCNC(=O)C2CCCN(S(=O)(=O)c3c(C)noc3/C=C/N(C)C)C2)cc1", "note": "(stereo not given)", "Potency": "inconclusive [activator, single point]"},
      {"smiles": "O=C(NCCC1CCCCN1S(=O)(=O)c1ccccc1)C(=O)Nc1ccc(F)cc1F", "note": "(stereo not given)", "Potency": "active: 18.4 µM"},
      {"smiles": "Cc1csc(NC(=O)CCn2c(=O)sc3ccccc32)n1", "Potency": "inconclusive [activator, partial curve, poor fit]"},
      {"smiles": "CC(C)N1CCN(Cc2cccc(-c3ccco3)c2)CC1CCO", "note": "(stereo not given)", "Potency": "inactive"},
      {"smiles": "Cc1ccc(S(=O)(=O)N2CCN(c3nc(C(C)C)c4c(c3C#N)CC(C)(C)OC4)CC2)cc1", "Potency": "inactive"},
      {"smiles": "Cc1nnc(N(C)C(=O)Cc2ccc3c(c2)OCO3)s1", "Potency": "inconclusive [activator, single point]"},
      {"smiles": "Cc1ccc(S(=O)(=O)/N=C2/NC(=O)/C(=C/c3cccnc3)S2)cc1", "Potency": "inconclusive [activator, single point]"},
      {"smiles": "COc1cc(C2c3cc4c(cc3OC(Nc3ccc(C(=O)O)cc3)C2C)OCO4)cc(OC)c1OC", "note": "(stereo not given)", "Potency": "active: 1.3 µM"},
      {"smiles": "Cc1ccccc1C(=O)NC(CC(C)C)C(=O)NCC(C)(C)N1CCOCC1", "note": "(stereo not given)", "Potency": "inactive"},
      {"smiles": "Cc1ccc(C)c(Cc2c(C)nc3c(C(=O)N4CCOCC4)cnn3c2C)c1", "Potency": "inactive"},
      {"smiles": "FC(F)(F)c1cc(-c2cccs2)nc2nc(N3CCOCC3)sc12", "Potency": "inconclusive [activator, single point]"},
      {"smiles": "CC1Cc2cc(-c3csc(NC(=O)Cc4cccs4)n3)ccc2N1S(C)(=O)=O", "note": "(stereo not given)", "Potency": "inconclusive [activator, single point]"},
      {"smiles": "Cc1ccc(S(=O)(=O)N(C)CC(O)Cn2c3ccccc3c3ccccc32)cc1", "note": "(stereo not given)", "Potency": "inconclusive [activator, single point]"},
      {"smiles": "COc1ccc(S(=O)(=O)N2CCC(NC(=O)OCc3c(Cl)cccc3Cl)CC2)cc1", "Potency": "inconclusive [activator, partial curve, poor fit]"},
      {"smiles": "O=C(O)CSc1nnc(COc2ccccc2)n1-c1ccccc1", "Potency": "inactive"},
      {"smiles": "N#Cc1nc(-c2ccc(OCc3ccccc3)cc2)oc1NCCCn1ccnc1", "Potency": "inactive"},
      {"smiles": "Cc1ccc(C(C)NC(=S)NCc2ccc(F)cc2)cc1C", "note": "(stereo not given)", "Potency": "inconclusive [activator, single point]"},
      {"smiles": "CC(=O)c1cccc(N2Cc3ccccc3C2=NC(=O)CCl)c1", "Potency": "inconclusive [activator, single point]"},
      {"smiles": "CC(/C=N/NC(=O)c1cccc(F)c1)=C\\c1ccccc1", "Potency": "inconclusive [activator, single point]"},
      {"smiles": "O=C(NCCN1CCOCC1)c1ccc2c(c1)N(Cc1ccccc1)C(=O)c1ccccc1S2", "Potency": "inconclusive [activator, partial curve, poor fit]"},
      {"smiles": "O=C(CCCc1c[nH]c2ccccc12)N1CCOCC1", "Potency": "inconclusive [activator, partial curve, poor fit]"},
      {"smiles": "CCOC(=O)CC(=O)CSc1nc2c(sc(=S)n2-c2ccc(C)c(C)c2)c(=O)[nH]1", "Potency": "inconclusive [activator, single point]"},
      {"smiles": "O=C(CCn1c(=O)c2ccccc2n(Cc2cc(=O)n3ccccc3n2)c1=O)NCc1ccco1", "Potency": "inconclusive [activator, single point]"},
      {"smiles": "CC1(c2ccccc2)CC(c2ccccc2)=C(C#N)C(=O)N1", "note": "(stereo not given)", "Potency": "inactive"},
      {"smiles": "CCOc1ccc(OCC)c(S(=O)(=O)N2CCCCC2)c1", "Potency": "inconclusive [activator, partial curve, poor fit]"},
      {"smiles": "CCOC(=O)C1CCCN(C(=O)C2CCN(Cc3nc(-c4ccc(Cl)cc4)oc3C)CC2)C1", "note": "(stereo not given)", "Potency": "inconclusive [activator, partial curve]"},
      {"smiles": "CCN(CC)c1ccc(/C=N/NC(=S)NC)c(O)c1", "Potency": "active: 1.3 µM"},
      {"smiles": "COc1ccc(NC(=S)NC(=O)/C=C/c2ccco2)cc1", "Potency": "inconclusive [activator, single point]"},
      {"smiles": "COc1ccccc1CNC(=O)[C@@H](NC(=O)C1CCN(C(=O)[C@@H]2CCCN2)CC1)C(C)C", "Potency": "inconclusive [activator, full curve, poor fit]"},
      {"smiles": "COc1ccc(NC(=O)N(Cc2cc3cc(C)ccc3[nH]c2=O)CC2CCCO2)cc1", "note": "(stereo not given)", "Potency": "inconclusive [activator, single point]"},
      {"smiles": "O=C(CNC(c1ccccc1)c1ccccc1)Nc1ccccc1-c1ccccc1", "Potency": "inconclusive [activator, partial curve, poor fit]"},
      {"smiles": "CCOc1ccc2[nH]cc(C(=O)NCc3ccccc3)c(=O)c2c1", "Potency": "inactive"},
      {"smiles": "COc1ccc(C(=O)/C(=C\\c2ccco2)N2C=CC=CC2=C(C#N)C#N)cc1", "Potency": "active: 1.3 µM"},
      {"smiles": "Cc1cc(C)n2nc(-c3ccccc3)c(-c3ccccc3)c2n1", "Potency": "inactive"},
      {"smiles": "COCc1cc(Sc2c(Cl)cccc2Cl)nc(-c2ccccc2)n1", "Potency": "inconclusive [activator, single point]"},
      {"smiles": "CCOC(=O)N1CCN(C(=S)NC(=O)C23CC4CC(CC(C4)C2)C3)CC1", "Potency": "inactive"}
    ]}
  ]
}
